Reference: ChEMBL document CHEMBL4888484, “Replenishing the malaria drug discovery pipeline: Screening and hit evaluation of the MMV Hit Generation Library 1 (HGL1) against asexual blood stage Plasmodium falciparum ,using a nano luciferase reporter read-out” (2022)
Screen size: about 150,000 compounds; about 540 (0.36%) showed an effect of 50% or more. The list shows a part of the results.

Tested on: Plasmodium falciparum
Assay: Primary screen in NF54 nanoGlo assay, in single point, at 2uM, 72h; a lower Z score goes with more inhibition
Type: functional, Erythrocyte
Details: timepoint 72 hour

| SMILES | % Inhibition [%] | Z score |
| --- | --- | --- |
| COc1cc(NC(=O)N(Cc2ccncc2)C2CC2)cc2cccnc12 | 2 | -0.19 |
| C[C@]1(F)CCCN(C(=O)Cc2ccco2)C1 | 5 | -0.54 |
| CCCCn1c(N)c(N(CCOC)C(=O)c2cc(-c3ccc(OC)c(OC)c3)nc3ccccc23)c(=O)[nH]c1=O | 5 | -0.55 |
| OC[C@H]1CCCN(CCNc2ccc3cc(Cl)ccc3n2)C1 | 12 | -1.36 |
| CC(C)(CN1CCN(C2CC2)CC1)CN1C(=O)c2ccccc2C1=O | 5 | -0.66 |
| CC1CC(c2cccc(F)c2)N(CCN2CCOC2=O)C1 (stereo unspecified) | -11 | 1.66 |
| CO[C@@H](CNS(C)(=O)=O)c1ccsc1 | -12 | 1.51 |
| C=CCN(CC=C)C(=O)c1c(COc2ccc(C)cc2)n(CCN2CCOCC2)c(C)cc1=O | -5 | 0.92 |
| N#Cc1nc(NC(=O)[C@@H]2Cc3ccccc3O2)[nH]c1C#N | 8 | -1.11 |
| CCc1nc(N)nc(N2CCC3(CC[C@H](CNC(C)=O)O3)CC2)c1C | -8 | 0.85 |
| Cc1n[nH]c(C(F)(F)F)c1-c1cccc(C(=O)N[C@H]2CC[C@H](O)CC2)c1 | -7 | 0.87 |
| CCn1ccnc1[C@@H]1CCCCN1C(=O)Cc1ccc(C#N)cc1 | 11 | -1.22 |
| COCCCNC(=O)Cc1cccn1-c1ccc(C)cc1 | -6 | 0.78 |
| CCc1noc(CC)c1CC(=O)N1CCC[C@@H]1c1csc(C)n1 | -8 | 0.72 |
| COCCN1CCC[C@H](NC(=O)c2cccnc2)C1 | 0 | -0.01 |
| CCCc1cc(C(=O)N(Cc2cccnc2)Cc2ccc3c(c2)OCO3)no1 | -7 | 1.25 |
| CC(C)c1nnsc1C(=O)N[C@@H]1[C@@H]2CCO[C@@H]2[C@H]1N1CCCC1 | -9 | 1.45 |
| CC(C)CC(=O)[C@H]1CCCN(C(=O)c2coc(CN3CCN(c4ncccn4)CC3)n2)C1 | -5 | 0.85 |
| NC(=O)CN1CCC=C(CCNS(=O)(=O)c2ccccc2)C1 | -6 | 1.05 |
| CN(Cc1cc(C2CC2)on1)C(=O)CCc1ccc(F)c(F)c1 | -11 | 1.22 |
| Cc1ccc(F)c(N)c1Br | 3 | -0.22 |

| SMILES | % Inhibition [%] | Z score |
| --- | --- | --- |
| CO[C@@H](CNC(=O)N1CCNC1=O)c1ccsc1 | -13 | 2.01 |
| C[C@H](NCCCc1cnn(C)c1)c1cc(Cl)c(N)c(Cl)c1 | -3 | 0.28 |
| COc1ccccc1/C=C/CN1CCC[C@H](CCC(=O)N2CCCC2)C1 | -5 | 0.97 |
| COc1ccc(-c2ccnc3nc(C4CCCCC4)nn23)c(F)c1 | -17 | 2.38 |
| Fc1ccc(CN2CCn3nc(CNc4ncccn4)cc3C2)c(F)c1F | 2 | -0.3 |
| CN(C)S(=O)(=O)c1ccc(-c2nnc(NC(=O)[C@@H]3COc4ccccc4O3)o2)cc1 | -15 | 1.88 |
| CCOc1ccccc1C(=O)N1C[C@@H]2C[C@H](N(C)C)CN2C(=O)[C@@H]1C | -3 | 0.45 |
| CC(=O)Oc1c(C)cc(CN[C@@H](C)c2nnn[nH]2)cc1C | -14 | 1.97 |
| Cc1cc(C)c2c(n1)nn1c(-n3nc(C)cc3C)cc(C)nc21 | -12 | 1.88 |
| CCOc1cc2c(cc1-c1nccn1Cc1csc(N)n1)CCC2 | 11 | -2.08 |
| Cc1occ(C(F)(F)F)c1C(=O)N[C@H](c1ncccn1)C1CC1 | -9 | 1.38 |
| O=S(=O)(c1cccc(C(F)(F)F)c1)n1cc(-c2cnn(S(=O)(=O)c3cccc(C(F)(F)F)c3)c2)cn1 | -4 | 0.59 |
| CC(C)(C)c1ccc(-c2cc3[nH]c(Cc4ccccc4)cc(=O)n3n2)cc1 | 4 | -0.56 |
| c1ccc(-c2ccc(CNc3cc([C@H]4CCCNC4)ncn3)s2)nc1 | -2 | 0.32 |
| Cc1c(F)cccc1NC(=O)Nc1cccc(-c2nnc3n2CCCC3)c1 | -30 | 2.8 |
| Cc1cccc(Cl)c1S(=O)(=O)N1C[C@@H]2CC[C@H]1CN(C)C2 | -9 | 0.99 |
| CCCN(CCC)CCNS(=O)(=O)c1cc(-c2cc(C)no2)ccc1C | -5 | 0.59 |
| Cc1cc(-c2nc([C@H]3CCOC3)no2)c2c(C)nn(C)c2n1 | -11 | 1.67 |
| O=C(O)[C@H]1CCCN(C(=O)c2cccc3[nH]ccc23)C1 | 1 | -0.22 |
| Cc1ccccc1-c1cnc(Cn2nc(C)c([C@@H]3COCCN3C)c2C)o1 | -16 | 1.84 |
| O=C(CN1C(=O)COc2ccc(C(=O)N3CCN(Cc4ccccc4)CC3)cc21)N1CCCC1 | -12 | 1.59 |

| SMILES | % Inhibition [%] | Z score |
| --- | --- | --- |
| C[C@@H](C(N)=O)N1CCN(C(=O)C2CCCC2)CC1 | -9 | 1.34 |
| Cc1c(C#N)c(NC(=O)CN2CC(OCC(=O)N(C)C)C2)n(-c2ccccc2)c1C | 8 | -1.09 |
| CCOc1cc(C#N)c(Br)c(Br)c1O | 34 | -3.8 |
| CCCn1c(C)cnc1CC1CCN(C(=O)c2cnccc2C)CC1 | -1 | 0.14 |
| FC1(F)C[C@@H](c2nnc(-c3cnccn3)o2)N(C2CCC2)C1 | 2 | -0.3 |
| CC1(O)CN(C(=O)c2cc3c(Br)cccc3[nH]2)C1 | -3 | 0.35 |
| Cc1cc(=O)n(CC(=O)N2CCCC[C@@H]2CCc2ccccc2)nc1C | -18 | 3.31 |
| C#CCCC1(CCC(=O)Nc2ccc3nc(C)nn3c2)N=N1 | -9 | 1.66 |
| COc1cccc(CNCCN2CCOCC2)c1OCc1ccc(Cl)cc1Cl | 38 | -5.16 |
| O=C(O)c1cc2c(-c3cccs3)nn(-c3ccccc3)c2[nH]1 | 3 | -0.43 |
| Cc1nc(O)cc(CCn2ccnc2-c2ncc[nH]2)n1 | -7 | 0.64 |
| Clc1ccccc1-n1nncc1CN1CCNCC1 | -12 | 2.23 |
| CCN1CCC[C@@H]1CNC(=O)C1=Cc2ccccc2OC1 | -11 | 1.79 |
| COc1ccc(S(=O)(=O)NCc2nc3cccnc3n2C)cc1 | -2 | 0.25 |
| O=C(c1cccc2[nH]ccc12)N1CCN(S(=O)(=O)c2cccc3nonc23)CC1 | -5 | 0.71 |
| O=C(Nc1cccnc1-n1nc(C(F)(F)F)cc1C(F)(F)F)c1cccc(C(F)(F)F)c1 | 1 | -0.09 |
| CCc1nnc(C2CCN(S(=O)(=O)c3ccc(C)cc3)CC2)s1 | -11 | 1.72 |
| C=CCn1nc(C)c(CN2CCc3[nH]cnc3[C@@H]2c2cc(C)no2)c1C | 5 | -0.48 |
| CCCC(=O)NCCC[C@H]1CCCN1C(=O)OC(C)(C)C | 1 | -0.11 |
| O=c1[nH]c(=O)n(C[C@H]2Cc3ccccc3O2)cc1Cl | -6 | 0.88 |
| NC(=O)c1ccc(=O)n(CCc2ccccc2)n1 | -14 | 2.59 |

| SMILES | % Inhibition [%] | Z score |
| --- | --- | --- |
| Cn1nc(C(=O)Nc2cc(S(=O)(=O)N3CCOCC3)ccc2N2CCCC2)c2ccccc2c1=O | -1 | 0.07 |
| Cc1ccc(Nc2c(-c3cc4ccccc4cc3O)nc3ncccn23)cc1 | 35 | -4.7 |
| CN(C)c1nc(/C=C/C2CCCCC2)ncc1F | 7 | -1.09 |
| CN(C(=O)c1ccc2[nH]nnc2c1)[C@H]1CCCN(CCCc2ccccc2)C1 | -13 | 1.68 |
| O=C(CN1C(=O)c2cccnc2Oc2ccccc21)N1CCC(N2CCCCC2)CC1 | -11 | 1.41 |
| Cc1noc(C)c1CCC(=O)N1CC2(CCC2)[C@@H]1C1CC1 | -2 | 0.37 |
| Cc1ccc(CN2CCNC(=O)[C@@H]2CC(=O)N2CCN(c3ncnc(C)c3C)CC2)o1 | -7 | 0.72 |
| Cc1cnc(NC(=O)COC2CCCCC2)s1 | -8 | 0.73 |
| CC(C)CC1NC2(C(=O)N(Cc3ccccc3F)c3ccccc32)C2C(=O)N(c3cccc(Cl)c3)C(=O)C12 (stereo unspecified) | 35 | -4 |
| CC(C)(O)CCc1ccc(C(=O)N2CCNC(=O)[C@@H]2Cc2c[nH]cn2)cc1 | 4 | -0.51 |
| COc1ccccc1[C@H]1CN(C(=O)NC2CCCC2)C[C@@H]1C(=O)O | 4 | -0.31 |
| O=C(NS(=O)(=O)N1CCc2ccccc21)c1cc(F)c(Cl)cc1F | 9 | -1.21 |
| CC(C)n1nccc1[C@@H]1OCCC[C@H]1c1nc(-c2cncs2)no1 | -9 | 1.13 |
| Cc1n[nH]c(C2CC2)c1C(=O)N1CCC[C@H](O)CC1 | 1 | -0.16 |
| CCc1ccc(S(=O)(=O)[C@H]2CS(=O)(=O)C[C@@H]2NCc2ccc(OC)c(OC)c2)cc1 | -11 | 1.48 |
| O=C(Nc1c[nH]c(=O)[nH]c1=O)c1cc(O)ncn1 | -5 | 0.93 |
| O=C(CN1CC[C@@]2(CCCN(Cc3ccc(F)c(F)c3)C2=O)C1)N1CCOCC1 | 5 | -0.66 |
| O=C(NCc1nnc2ccc(N3CCCC3)nn12)c1ccc(=O)[nH]n1 | 17 | -2.18 |
| C#CCN(C(=O)c1ncoc1C(C)C)[C@H]1CCS(=O)(=O)C1 | 5 | -0.66 |
| O=C(COc1ccccn1)NC1CCCC1 | 7 | -1.44 |
